Measured values taken from PubChem BioAssay AID2546 (National Center for Advancing Translational Sciences (NCATS), 2010).
Out of some 310,000 compounds screened, about 11,000 (3.5%) were called active. The shares of active, inactive and inconclusive entries below differ from those in the screen. Calls come from the whole dose curve; as a rule, active = well fitted inhibition curve with a large enough effect; inconclusive = small, poorly fitted or top-dose-only effect, or effect the other way; inactive = flat fitted curve, though single readings scatter. Potencies of inconclusive entries are left out as doubtful fits.

test: VP16 counterscreen qHTS for inhibitors of ROR gamma transcriptional activity; conditions: Drosophila S2 Gal4-VP16 UAS-luciferase, luminescence, 20 h; activity, negative = inhibition: at 53.6 µM (top of the series);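 note: Gal4-VP16 expression switched on by copper sulfate through the metallothionein promoter; nearly all actives have a fitted effect of over 50% in size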
Excerpt: NIH Molecular Libraries Probe Production Network [MLPCN]
NIH Chemical Genomics Center [NCGC]
Assay Provider: Dan Littman, New York University
The retinoic acid-related orphan receptor (ROR) gamma is a transcription factor that has a central role in the differentiation of Th17 cells, a subset of T helper cells that secrete the inflammatory cytokines IL-17, IL-17F, and IL-22. Th17 cells have been implicated in graft versus host disease, autoimmune disease and asthma. ROR gamma is induced in naive T helper cells in the presence of TGF-beta combined with IL-6, IL-21, or IL-23, and thereafter directs the expression of the Th17 lineage cytokines. To identify nonspecific inhibitors, a Drosophila Schneider cell line was stably transfected with two vectors: a gene expressing a fusion of the Gal4 DNA binding domain and VP16 transactivation domain under the control of the metallothionine promoter and a Photinus luciferase reporter regulated by the Gal4 binding site enhancer, UAS. […] Small molecule inhibitors that inhibit components common to the RORgt and VP16 assays, such as the Gal4 DNA binding domain or the UAS luciferase reporter, will be active in both assays and thus scored as nonspecific.
For screening, 600 cells in 4 uL/well were dispensed into white solid 1536-well plates (Grenier) using a solenoid-based dispenser. Following transfer of 23 nL compound or DMSO vehicle by a pin tool, the plates were incubated 1 hr at ambient temperature, and 1 uL/well copper sulfate (700 uM final concentration) was added. The plates were centrifuged 15 s at 1000 RPM and incubated 20 hr at ambient temperature. After addition of 1.5 uL Photinus luciferase detection reagent, the plates were incubated 10 min at ambient temperature and then read by a ViewLux (Perkin Elmer) to detect luminescence.
% is set by controls: 0 for no effect and ±100 for the full control effect; potency is the fitted concentration of half-maximal effect; tags give direction and shape of the fitted curve.

SMILES | activity, negative = inhibition | Potency
O=C(NCCCCNC(=O)c1ccco1)c1ccco1 | inactive: -5.75% | –
COc1cc(NC(=O)CSc2nc3ccccc3cc2Cc2ccccc2)cc(OC)c1 | inactive: -1.53% | –
CCN(CCO)C1CC(=O)N(c2ccccc2C)C1=O (centres undefined) | – | active: 3.55 µM
O=C(Nc1ccc(F)cc1)c1nsc(Cl)c1Cl | – | inconclusive [activator, full curve, poor fit]
COc1cc(/C=C/C(=O)Nc2nnc(CC(C)(C)C)s2)cc(OC)c1OC | – | inconclusive [activator, single point]
Cc1occc1C(=O)N/N=C/c1ccc(N(C)C)cc1 | – | inconclusive [inhibitor, single point]
C#CC(=O)N(c1ccc(OC)cc1OC)C(C(=O)NC1CCCC1)c1cccs1 (centres undefined) | – | active: 7.94 µM
O=C1/C(=C/c2ccc(F)cc2)CCC1C1CCCC1 (centres undefined) | – | inconclusive [activator, single point]
NNC(=O)c1ccc(CN2CCCCC2)o1 | inactive: 6.09% | –
CC(C)CNC(=S)N(CCN(C)C)Cc1cc2cc3c(cc2[nH]c1=O)OCO3 | inactive: -2.8% | –
Cn1c(=O)c(/C=C/c2ccc(F)cc2)nc2ccccc21 | inactive: -4.03% | –
C/C(=N\NC(=O)c1cccnc1)c1cc2ccccc2o1 | inactive: -14.1% | –
O=C(OC(C(=O)Nc1cccc(C(F)(F)F)c1)c1ccccc1)C1CCCCC1 (centres undefined) | – | inconclusive [inhibitor, single point]
Cc1cccc(/C=N/NC(=O)CNc2cccc3ccccc23)n1 | – | inconclusive [inhibitor, single point]
COc1c(F)c(F)c(C(=O)Nc2ccc(N3CCN(C(C)=O)CC3)c(Cl)c2)c(F)c1F | inactive: -21.8% | –
O=C(Nc1ccc(NC(=O)c2ccco2)cc1)c1ccc2c(c1)OCO2 | – | inconclusive [inhibitor, single point]
CC(C)N=C=NC(C)C | inactive: -4.75% | –
COc1ccc(CCn2c(-c3ccco3)nc3nc4ccccc4nc32)cc1 | – | inconclusive [inhibitor, partial curve]
COc1cc(CNCCc2c[nH]c3ccccc23)ccc1OCc1ccccc1F | – | inconclusive [inhibitor, single point]
CCCOc1ccc(CNC(=S)N/N=C/c2ccc([N+](=O)[O-])cc2)cc1 | – | active: 1.58 µM

SMILES | activity, negative = inhibition | Potency
O=C(/C=C/Nc1cccc(O)c1)c1ccccc1 | – | active: 6.31 µM
CCN1CCN(Cc2ccc(NC(=O)c3ccc(C)c(NC(=O)c4c[nH]c5cc(C(F)(F)F)ccc5c4=O)c3)cc2C(F)(F)F)CC1 | – | active: 11.2 µM
Cc1cc(NC(=O)c2ccc([N+](=O)[O-])cc2)no1 | – | inconclusive [activator, full curve]
Cc1cccc2nc(CSCc3ccco3)cn12 | inactive: -24.4% | –
Cc1c(C(=O)c2ccc(Cl)c(Cl)c2)cnc2cc3c(cc12)OCO3 | – | inconclusive [inhibitor, single point]
Nc1ccc2oc(-c3cc(Br)ccc3Cl)nc2c1 | inactive: 4.72% | –
CN(CCc1ccccn1)C(=O)CN(C)S(=O)(=O)c1ccc2c(c1)c(=O)n(C)c(=O)n2C | inactive: -2.45% | –
Cc1cc(C)c2nc(-c3ccccn3)cc(C(=O)Nc3ccc(S(=O)(=O)Nc4cc(C)on4)cc3)c2c1 | – | inconclusive [inhibitor, partial curve, poor fit]
Cc1ccc(NC2=CC(=O)CC(c3ccco3)C2)c(N)c1 (centres undefined) | inactive: 3.12% | –
COC1=CC(=O)C=C(OC)C1=O | – | active: 4.47 µM
O=C(COC(=O)c1cc(=O)[nH]c2ccccc12)c1ccc(Br)cc1 | – | inconclusive [inhibitor, single point]
Oc1c(CN2CCOCC2)cc(COCc2ccccc2)c2cccnc12 | – | active: 0.0891 µM
CCn1c(COc2ccccc2C)nc2ccccc21 | – | inconclusive [inhibitor, single point]
COC(=O)NC(=S)Nc1ccc(Oc2ccc(Cl)cc2)c(Cl)c1 | – | active: 5.01 µM
CCc1ccc(C(=O)C(C)CN2CCCCC2)cc1 (centres undefined) | inactive: 4.53% | –
CN(C)c1nc(Oc2ccc(/C=N/O)cc2)nc(N(C)C)n1 | inactive: -4.28% | –
CN1CCN(CC(O)COc2ccc(C34CC5CC(CC(C5)C3)C4)cc2)CC1 (centres undefined) | – | inconclusive [inhibitor, single point]
Cc1ccccc1Sc1c(C#N)c(-c2ccccc2)nn1C | – | inconclusive [inhibitor, partial curve]
CN(C)/C=C(\C=N\OCc1ccc(Cl)cc1Cl)C(=O)Nc1ccc(Cl)c(Cl)c1 | – | inconclusive [inhibitor, single point]
